The subject of one assay is HSkMC. Description: cytotoxicity call (relative viability < 0.9). The note with it: 10 µM.
For another assay, the system named is HepG2. Description: cytotoxicity call (relative viability < 0.9). The note with it: 10 µM.
The subject of another assay is S. aureus RN4220. Description: growth inhibition call (relative growth <= 0.2). To be noted: 50 µM.

Structures are written as SMILES. Some of the results follow.

As for `CCO[C@H]1OC(C(=O)N2CCN(Cc3ccc4c(c3)OCO4)CC2)=C[C@@H](C)[C@@H]1CCCOC(=O)NCCCCCC(=O)NO`, the cytotoxicity call in the assay with HSkMC and in the assay with HepG2 was “inactive” throughout. Moreover, the growth inhibition call in the assay with S. aureus RN4220 was “inactive”.
As to `C[C@H](CO)N1C[C@H](C)[C@H](CN(C)Cc2ccc(Oc3ccccc3)cc2)Oc2ccc(NC(=O)NC3CCCCC3)cc2CC1=O`, the cytotoxicity call in the assay on HSkMC and with HepG2 was “inactive” in each case. For the same molecule, the growth inhibition call in the assay with S. aureus RN4220 was “inactive”.
Regarding `C[C@@H]1CN([C@@H](C)CO)C(=O)Cc2cc(NS(C)(=O)=O)ccc2O[C@@H]1CN(C)C(=O)Nc1ccc2c(c1)OCO2`, the cytotoxicity call in the assay with HSkMC and in the assay on HepG2 was “inactive” throughout. Besides, the growth inhibition call in the assay with S. aureus RN4220 was “inactive”.
With `C[C@@H]1CCCCO[C@@H](CN(C)CC2CC2)[C@H](C)CN([C@H](C)CO)C(=O)c2cc(NC(=O)Nc3ccccc3)ccc2O1`, the cytotoxicity call in the assay on HSkMC and in the assay with HepG2 was “inactive” each time. For the same molecule, in the assay on S. aureus RN4220, the growth inhibition call was “inactive”.
Turning to `COc1ccc(CN(C)C[C@H]2OCCCC[C@H](C)Oc3ccc(NS(=O)(=O)c4ccccc4)cc3C(=O)N([C@H](C)CO)C[C@@H]2C)cc1`, the cytotoxicity call with HSkMC and in the assay on HepG2 was “inactive” each time. For the same molecule, the growth inhibition call with S. aureus RN4220 is “inactive”.
As to `C[C@@H]1CN([C@@H](C)CO)C(=O)c2c(c3ccccc3n2C)-c2ccccc2CO[C@H]1CN(C)S(=O)(=O)c1ccc(Cl)cc1`, the cytotoxicity call with HSkMC was “inactive”. The cytotoxicity call in the assay with HepG2 is “active”. Moreover, in the assay on S. aureus RN4220, the growth inhibition call is “inactive”.
Take `C[C@@H]1CN([C@H](C)CO)C(=O)c2cc(NC(=O)Cc3ccccc3)ccc2O[C@@H]1CN(C)S(=O)(=O)c1cccs1`: the cytotoxicity call with HSkMC and in the assay on HepG2 was “inactive” each time. In the assay with S. aureus RN4220, the growth inhibition call was “inactive”.
Take `N=C(N)NCCC[C@H](N)C(=O)NCC(=O)N[C@@H](CC(=O)O)C(=O)N[C@@H](CO)C(=O)O`: the cytotoxicity call in the assay with HSkMC and with HepG2 was “inactive” throughout. Besides, the growth inhibition call with S. aureus RN4220 is “inactive”.
`C[C@H]1CCCCO[C@H](CN(C)C)[C@@H](C)CN([C@@H](C)CO)C(=O)c2cc(NS(=O)(=O)c3cn(C)cn3)ccc2O1`: the cytotoxicity call in the assay on HSkMC and with HepG2 was “inactive” throughout. Further, the growth inhibition call in the assay with S. aureus RN4220 was “inactive”.
On to `O=C(C[C@H]1CC[C@@H]2[C@H](COC[C@@H](O)CN2C(=O)Nc2cccc(Cl)c2)O1)NCCCN1CCOCC1`, for which the cytotoxicity call in the assay with HSkMC and in the assay with HepG2 was “inactive” in each case. Moreover, in the assay on S. aureus RN4220, the growth inhibition call was “active”.
For the molecule `C[C@H](NC(=O)N(C)C[C@@H]1OCc2ccccc2-c2ccccc2C(=O)N([C@H](C)CO)C[C@H]1C)c1ccccc1`, the cytotoxicity call in the assay on HSkMC and in the assay with HepG2 was “inactive” in each case. The growth inhibition call in the assay with S. aureus RN4220 was “inactive”.
For `C[C@@H]1CN([C@@H](C)CO)C(=O)c2c(c3ccccc3n2C)-c2ccccc2CO[C@H]1CN(C)C(=O)CCC(F)(F)F`, the cytotoxicity call in the assay with HSkMC and in the assay on HepG2 was “inactive” throughout. In addition, the growth inhibition call in the assay with S. aureus RN4220 was “inactive”.
Consider `C[C@@H]1CN([C@H](C)CO)C(=O)c2cc(NC(=O)Nc3ccc(C(F)(F)F)cc3)ccc2O[C@@H](C)CCCCO[C@H]1CN(C)C(=O)c1ccccc1`, for which the cytotoxicity call in the assay on HSkMC was “active”. Also, in the assay on HepG2, the cytotoxicity call is “inactive”. Also, the growth inhibition call with S. aureus RN4220 is “inactive”.
For `CC(C)NC(=O)N(C)C[C@@H]1Oc2ccc(NS(=O)(=O)c3ccc(F)cc3)cc2CC(=O)N([C@@H](C)CO)C[C@@H]1C`, the cytotoxicity call with HSkMC and with HepG2 was “inactive” throughout. Besides, the growth inhibition call in the assay with S. aureus RN4220 was “inactive”.
Consider `C[C@H]1CN([C@@H](C)CO)S(=O)(=O)c2ccc(C#Cc3ccc(F)cc3)cc2O[C@@H]1CN(C)C(=O)c1ccccn1`, for which the cytotoxicity call in the assay on HSkMC and in the assay on HepG2 was “inactive” throughout. For the same molecule, the growth inhibition call with S. aureus RN4220 is “inactive”.
For `Cc1ccc(-c2cnc3c(c2)C(=O)N([C@@H](C)CO)C[C@@H](C)[C@H](CN(C)C(=O)Cc2ccncc2)O3)cc1`, the cytotoxicity call in the assay on HSkMC and in the assay with HepG2 was “inactive” in each case. The growth inhibition call in the assay on S. aureus RN4220 was “inactive”.
Take `COc1ccc2c3c([nH]c2c1)[C@H](CO)N(C[C@]13CN(CC2CCCCC2)C1)C(=O)Nc1cccc(c1)F`: the cytotoxicity call in the assay on HSkMC and in the assay with HepG2 was “active” in each case. Besides, in the assay on S. aureus RN4220, the growth inhibition call is “active”.
As to `C[C@@H]1CN([C@@H](C)CO)S(=O)(=O)c2ccc(C#CC(C)(C)O)cc2O[C@@H]1CN(C)Cc1ccc(F)cc1`, the cytotoxicity call in the assay with HSkMC and in the assay with HepG2 was “inactive” each time. The growth inhibition call with S. aureus RN4220 was “inactive”.
Consider `CCC(Cc1c(I)cc(I)c(N)c1I)C(=O)O` (stereo unspecified), for which the cytotoxicity call with HSkMC and in the assay on HepG2 was “inactive” throughout. Also, the growth inhibition call in the assay with S. aureus RN4220 is “inactive”.
As for `O=C(NCCNS(=O)(=O)c1cccc2nonc12)[C@H]1COc2ccccc2O1`, the cytotoxicity call with HSkMC and with HepG2 was “inactive” in each case. In addition, the growth inhibition call in the assay on S. aureus RN4220 was “inactive”.
For the molecule `C[C@H]1CCCCO[C@H](CN(C)C(=O)Nc2ccc(C(F)(F)F)cc2)[C@@H](C)CN([C@@H](C)CO)C(=O)c2cc(NC(=O)NC3CCCCC3)ccc2O1`, the cytotoxicity call in the assay on HSkMC and in the assay with HepG2 was “inactive” throughout. Further, the growth inhibition call with S. aureus RN4220 is “inactive”.
Regarding `Cc1cc(C(=O)Nc2cccc3c2O[C@H](CN(C)S(=O)(=O)c2ccccc2)[C@H](C)CN([C@@H](C)CO)C3=O)n(C)n1`, the cytotoxicity call with HSkMC and in the assay on HepG2 was “inactive” each time. The growth inhibition call in the assay with S. aureus RN4220 was “inactive”.
In the case of `COc1ccc(NC(=O)Nc2ccc3c(c2)CC(=O)N([C@@H](C)CO)C[C@@H](C)[C@H](CN(C)Cc2ccc(C(F)(F)F)cc2)O3)cc1`, in the assay on HSkMC, the cytotoxicity call was “inactive”. For the same molecule, in the assay with HepG2, the cytotoxicity call was “active”. Besides, the growth inhibition call in the assay on S. aureus RN4220 is “inactive”.
As for `C[C@@H]1CN([C@@H](C)CO)C(=O)c2cccc(NC(=O)Nc3cccc4ccccc34)c2O[C@H]1CN(C)C(=O)Nc1ccc(C(F)(F)F)cc1`, the cytotoxicity call with HSkMC and in the assay on HepG2 was “active” in each case. In the assay with S. aureus RN4220, the growth inhibition call is “inactive”.
For the molecule `C[C@H](CO)N1C[C@H](C)[C@@H](CN(C)C(=O)Nc2ccc(C(F)(F)F)cc2)OCCCC[C@H](C)Oc2ccc(N(C)C)cc2C1=O`, the cytotoxicity call in the assay with HSkMC and with HepG2 was “inactive” in each case. In addition, the growth inhibition call with S. aureus RN4220 is “inactive”.
Take `COc1cccc(S(=O)(=O)N(C)C[C@H]2Oc3cc(C4=CCCC4)ccc3S(=O)(=O)N([C@@H](C)CO)C[C@H]2C)c1`: the cytotoxicity call in the assay on HSkMC (human skeletal muscle cells) and with HepG2 was “inactive” in each case. Besides, the growth inhibition call in the assay on S. aureus RN4220 is “inactive”.
As to `C[C@H](CO)N1C[C@H](C)[C@@H](CN(C)Cc2ccc(Cl)c(Cl)c2)Oc2c(NC(=O)c3nc4ccccc4s3)cccc2C1=O`, the cytotoxicity call with HSkMC and in the assay on HepG2 was “inactive” each time. For the same molecule, in the assay on S. aureus RN4220, the growth inhibition call is “inactive”.

The record behind these values is the antibiotic and cytotoxicity screens of Wong et al. (2023).
